Where “and” joins values, the source holds several entries; their conditions need not be identical. Equal entries are not always repeated. Over roughly 5,300 compounds, “PER2::LUC luminescence relative to vehicle control” has its median near 0.96; the highest 2% begin near 1.3. The list shows a part of the results.
Test system: mPer2Luc MEF
Assay: PER2::LUC luminescence relative to vehicle control (fold of vehicle); higher = higher PER2::LUC reporter signal
Details: 10 µM
Summary of the method: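 The value is PER2::LUC luminescence expressed as fold of vehicle control. Mouse embryonic fibroblasts carrying the mPer2Luc reporter were seeded at ~3000 cells per well in 384-well plates and grown in DMEM with 10% FBS at 37 °C and 5% CO2. Compounds from commercial libraries were added at 10 μM 48 h after seeding, and luminescence was read with the ONE-Glo luciferase assay system 24 h and 30 h after treatment, followed by an alamarBlue viability assay.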

SMILES	PER2::LUC luminescence (time after treatment 24 h)	PER2::LUC luminescence (time after treatment 30 h)
O=C(Cc1ccc(Cl)c(Cl)c1)N1CCCCC1CN1CCCC1 (configuration not stated)	0.908	0.925
C#CCOC(=O)C1=CCCN(C)C1	0.873 and 0.859	1.08 and 1
Cc1sc2c(c1C)C(c1ccc(Cl)cc1)=N[C@@H](CC(=O)Nc1ccc(O)cc1)c1nnc(C)n1-2	0.095	0.129
CCc1c(C(=O)C(N)=O)c2c(OCC(=O)O)cccc2n1Cc1ccccc1	0.996 and 1.2	0.96 and 1.11
CC(=O)[C@H]1CC[C@H]2[C@@H]3CC[C@@H]4CC(=O)CC[C@]4(C)[C@H]3CC[C@]12C	0.782	0.786
O=c1c(O)c(-c2ccc(O)c(O)c2)oc2c(O)c(O)cc(O)c12	1.01	0.946
C=CC[N+]1(C)CC[C@]23c4c5ccc(O)c4O[C@H]2C(=O)CC[C@@]3(O)[C@H]1C5 (some centres not stated)	1.08	1.05
CN1CCc2cc3c(cc2C1O)OCO3 (configuration not stated)	1.04	1.1
CP(=O)(O)CCCN	1	0.948
C/C1=C/C(=O)O[C@@H]2C[C@@H](CC[C@H](C)/C=C\C=C\CC1)O[C@@](O)([C@@H]1CSC(=O)N1)C2	0.505	0.846
COc1ccc(C(=O)O)cc1OC	1.1	0.778
CC1(C)C2CC(=O)[C@]3(C)C(CC[C@@]4(C)[C@H](c5ccoc5)OC(=O)[C@H]5O[C@]543)[C@@]2(C)C(=O)C[C@H]1O (some centres not stated)	1.03	1.03
COc1ccc2[nH]cc(C3=CCNCC3)c2c1	0.892 and 0.778	0.983 and 0.819
NP(N)(=O)NC(=O)c1ccc(F)cc1	0.919	0.843
CCCCC(C#N)(Cn1cncn1)c1ccc(Cl)cc1 (configuration not stated)	1.03	1.08
CC(N)c1cccc(Cl)c1Cl (racemic)	1.01	0.901
O=C(O)[C@H]1[C@H]2CN[C@H](C(=O)O)[C@H]21	1.03	0.89
NCC(=O)c1ccccc1	1.21	1.22
Clc1cccc(SC2CCNCC2)n1	0.995	0.952
CCN(CC)CCOC(=O)C(O)(c1ccccc1)c1ccccc1	0.998	1.01
N[C@H](CCP(=O)(O)O)C(=O)O	1.01	1.02
C/C1=C/C[C@@H](/C(C)=C/c2csc(C)n2)OC(=O)C[C@H](O)C(C)(C)C(=O)[C@H](C)[C@@H](O)[C@@H](C)CCC1	0.484	0.443
CN(C)C(=O)Oc1cccc([N+](C)(C)C)c1	1.17	0.827
CN1[C@H]2C[C@H](OC(=O)[C@H](CO)c3ccccc3)C[C@@H]1[C@@H](O)C2	1.05 and 0.935	1 and 0.907
O=C(Oc1ccc([N+](=O)[O-])cc1)N1CCN(Cc2cccc(Oc3ccccc3)c2)CC1	1.08	1.07
NCCCC[C@H](NC(=O)[C@H](Cc1ccccc1)NC(=O)[C@@H](CCCN=C(N)N)NC(=O)[C@@H](N)Cc1ccc(O)cc1)C(N)=O	1.05	0.925

Source: the supplement of paper PMC9334596
